In PubChem BioAssay AID1460 (National Center for Advancing Translational Sciences (NCATS), 2008):
“And” between values parts separate entries of the source, which are not always exact repeats. Equal values may be shown once. The whole screen tested about 270,000 compounds, of which about 5,800 (2.1%) were called active. The inconclusive results got no clear call from the source; some entries with a clear call stand among them for comparison. Calls come from the whole dose curve; as a rule, active = well fitted inhibition curve with a large enough effect; inconclusive = small, poorly fitted or top-dose-only effect; inactive = flat fitted curve, though single readings scatter. Where the call is inconclusive, the potency comes from a doubtful curve fit.

What follows are compounds tested against Microtubule-associated protein tau (Homo sapiens) (UniProt P10636) (assay: qHTS for Inhibitors of Tau Fibril Formation, Thioflavin T Binding). Conditions: recombinant tau K18 P301L (four-repeat tau fragment), heparin-induced fibrillization, ThT fluorescence; series mostly up to 57.4 µM; activity, negative = inhibition: at the top concentration.
Method in brief: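 Heparin-induced fibrillization of the P301L-mutant K18 repeat-domain fragment of human tau was followed by ThT binding in quantitative high-throughput format.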
% is set by controls: 0 for no effect and ±100 for the full control effect; potency is the fitted concentration of half-maximal effect; tags give direction and shape of the fitted curve.
Note: nearly all actives have a fitted effect of over 55% in size.

Chain of UniProt P10636 (P10636 whole entry, looked up, the tested form may be a part): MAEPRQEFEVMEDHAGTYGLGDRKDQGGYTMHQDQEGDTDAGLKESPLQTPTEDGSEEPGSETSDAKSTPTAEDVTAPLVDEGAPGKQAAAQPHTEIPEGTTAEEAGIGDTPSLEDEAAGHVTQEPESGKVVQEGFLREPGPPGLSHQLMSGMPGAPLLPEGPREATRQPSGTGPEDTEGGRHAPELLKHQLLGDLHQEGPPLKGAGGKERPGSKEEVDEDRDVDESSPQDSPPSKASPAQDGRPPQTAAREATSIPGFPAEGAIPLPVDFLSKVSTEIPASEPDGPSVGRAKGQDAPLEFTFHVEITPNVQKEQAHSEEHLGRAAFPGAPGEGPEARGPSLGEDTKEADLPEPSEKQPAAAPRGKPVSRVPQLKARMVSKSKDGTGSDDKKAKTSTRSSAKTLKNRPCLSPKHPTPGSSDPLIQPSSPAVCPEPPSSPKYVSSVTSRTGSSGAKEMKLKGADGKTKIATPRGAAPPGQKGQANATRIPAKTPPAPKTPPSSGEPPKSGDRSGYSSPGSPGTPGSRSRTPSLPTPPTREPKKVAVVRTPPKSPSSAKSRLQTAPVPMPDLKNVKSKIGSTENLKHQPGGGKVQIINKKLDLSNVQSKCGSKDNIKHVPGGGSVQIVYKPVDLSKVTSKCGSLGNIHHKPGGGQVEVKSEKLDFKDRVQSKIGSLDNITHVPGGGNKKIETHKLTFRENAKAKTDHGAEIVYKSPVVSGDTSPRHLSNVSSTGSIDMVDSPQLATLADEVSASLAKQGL

| Structure (SMILES) | activity, negative = inhibition | Potency |
| --- | --- | --- |
| O=C(C1CC(=O)N(C2CCCCCCC2)C1)N1CCC2(CC1)OCCO2 (configuration not stated) | inactive: -4.32% |  |
| COc1ccc2c(c1)/C(=C/c1cnc[nH]1)C(=O)N2 |  | active: 14.1 µM |
| COc1cc(/C=C2\C(=O)NC(=O)N(c3ccc(C)cc3)C2=O)cc(OC)c1O |  | inconclusive: 11.2 µM [inhibitor, partial curve] |
| Cc1nn(CC(C)C)c(Cl)c1C(=O)O | inactive: -1.99% |  |
| CC1(C)N([O-])[N+](=O)C1(C)Br (configuration not stated) | inactive: -3.24% |  |
| CCCCn1c(O)c(/C=N/NC(=O)c2ccncc2)c(=O)[nH]c1=S |  | inconclusive: 0.141 µM [inhibitor, full curve, poor fit] |
| O=c1[nH]c(=S)n(C2CC2)c(O)c1C=Nc1cccc(C(F)(F)F)c1 |  | inconclusive: 8.91 µM [inhibitor, partial curve] |
| CC1(C)C(=O)CC[C@]2(C)C3C(=O)C=C4[C@H]5C[C@@](C)(C(=O)O)CC[C@]5(C)CC[C@]4(C)[C@]3(C)CC[C@@H]12 (some centres not stated) |  | inconclusive: 20 µM [inhibitor, single point] |
| CCOc1cccc(N2C(=O)CC(=O)NC2=O)c1 |  | inconclusive: 12.6 µM [inhibitor, partial curve] |
| CCSc1nnc([C@@H](N)Cc2ccccc2)o1 | inactive: 7.73% |  |
| O=C(CNS(=O)(=O)c1ccccc1)OCC(=O)c1ccc(OC(=O)c2ccccc2)cc1 |  | inconclusive: 3.16 µM [inhibitor, partial curve] |
| COc1ccc2c(c1)[nH]c1c(C)nccc12 |  | inactive |
| CCCCn1c(N)c(C(=O)NCc2cccs2)c2nc3ccccc3nc21 |  | inconclusive: 39.8 µM [inhibitor, single point] |
| COc1ccc(OC)c(N2C(=O)NC(=O)/C(=C\c3ccc([N+](=O)[O-])s3)C2=O)c1 |  | active: 11.2 µM |
| O=c1[nH]c(=S)n(-c2ccccc2)c(O)c1/C=N/N1CCCCC1c1cccnc1 (configuration not stated) |  | inconclusive: 14.1 µM [inhibitor, partial curve, poor fit] |
| COCCCNC(=O)c1c(NC(=O)c2ccco2)n(Cc2ccccc2)c2nc3ccccc3nc12 |  | inconclusive: 35.5 µM [inhibitor, partial curve] |
| O=C1NC(=O)N(CCc2ccc(F)cc2)C(=O)/C1=C/c1cccs1 |  | inconclusive: 2.82 µM [inhibitor, full curve] |
| O=C1c2ccccc2C(=O)c2ccccc21 | inactive: 7.44% |  |
| CC(C)n1c(=O)c(C=Nc2ccc(S(N)(=O)=O)cc2)c(O)n(Cc2ccco2)c1=O |  | inconclusive: 14.1 µM [inhibitor, partial curve] |
| Oc1c(Cl)c(Cl)c(Cl)c(Cl)c1Cl |  | inconclusive: 15.8 µM [inhibitor, partial curve] |
| COc1ccc2nc(NC(=O)c3nc(S(=O)(=O)Cc4cccc(C)c4)ncc3Cl)sc2c1 |  | active: 14.1 µM |
| Nc1c(C(=O)NCc2ccco2)c2nc3ccccc3nc2n1Cc1ccc(F)cc1 |  | inconclusive: 28.2 µM [inhibitor, single point] |
| CNC(=O)Oc1ccc(-c2cn3cc(C)ccc3n2)cc1 |  | inconclusive: 15.8 µM [inhibitor, partial curve] |

| Structure (SMILES) | activity, negative = inhibition | Potency |
| --- | --- | --- |
| Cc1oc(-c2ccc(Cl)cc2)nc1CN1CCC(C(=O)NCCCN2CCN(c3cccc(Cl)c3)CC2)CC1 |  | inconclusive: 31.6 µM [inhibitor, single point] |
| CCOc1ccc(S(=O)(=O)N(C)c2ccc(OCC(=O)N3c4ccc(C)cc4C4CN(C)CCC43)cc2)cc1 (configuration not stated) |  | inconclusive: 35.5 µM [inhibitor, single point] |
| NC(Cc1ccc(N(CCCl)CCCl)cc1)C(=O)O (configuration not stated) |  | active: 28.2 µM |
| COc1ccc(CCn2c(O)c(C=NCc3ccc4c(c3)OCO4)c(=O)[nH]c2=O)cc1OC |  | inconclusive: 17.8 µM [inhibitor, partial curve] |
| C=CCn1c(O)c(/C(CC)=N/NC(=S)Nc2ccccc2)c(=O)[nH]c1=O |  | inconclusive: 22.4 µM [inhibitor, partial curve, poor fit] |
| N[C@H](CCP(=O)(O)O)C(=O)O |  | inactive |
| CCOC(=O)CC(NC(=O)C(Cc1ccc(N(CCCl)CCCl)cc1)NC(C)=O)C(=O)OCC (configuration not stated) | inactive: -16.9% |  |
| CCOP(=O)(OCC)c1nc(-c2ccc(Cl)cc2)oc1NCc1ccccc1 |  | inconclusive: 14.1 µM [inhibitor, partial curve] |
| CCCCC(=O)N/N=C/c1c(O)n(Cc2ccco2)c(=O)[nH]c1=O | inactive: -16.5% |  |
| Cc1cc(O)c2c(c1)C(=O)c1cc(O)cc(O)c1C2=O |  | active: 8.91 µM and active: 10 µM |
| C/C(O)=C1\C(=O)[C@@H]2[C@H]3c4c[nH]c5cccc(c45)C[C@H]3C(C)(C)N2C1=O |  | inactive and inconclusive: 8.91 µM [inhibitor, partial curve] |
| CC(C(=O)Nc1ccc(Cl)cc1Cl)N1CC=C(c2ccccc2)CC1 (configuration not stated) |  | inconclusive: 39.8 µM [inhibitor, single point] |
| CN1C(=O)C(=Cc2ccc(SC3CCCCC3)o2)C(=O)N(C)C1=O |  | inconclusive: 12.6 µM [inhibitor, partial curve] |
| CN(C)c1nc(-c2ccccc2)[n+](C)s1 |  | inconclusive: 39.8 µM [inhibitor, partial curve, poor fit] |
| CCCCCCCCc1[se]c2ccccc2c1I |  | inconclusive: 22.4 µM [inhibitor, single point] |
| CSc1ccc(CN2CCN(Cc3ccccc3Cl)CC2)cc1 | inactive: 5.25% |  |
| O=C1/C(=C\c2ccc(Cl)cc2Cl)N2CCC1CC2 |  | inconclusive: 39.8 µM [inhibitor, single point] |
| CCCCN1C(=O)/C(=C/c2ccc(N3CCCCCC3)cc2)C(=O)NC1=S |  | inconclusive: 3.98 µM [inhibitor, full curve, poor fit] |
| COc1cccc(C(=O)C2CCCN(C3CCOCC3)C2)c1 (configuration not stated) | inactive: -5.28% |  |
| CCN(CC)C(=O)N[C@@H]1C=C2c3cccc4[nH]cc(c34)C[C@H]2N(C)C1 |  | inconclusive: 14.1 µM [inhibitor, partial curve] |
| Nc1ccc(N2CCN(Cc3ccccc3Cl)CC2)c(Cl)c1 |  | inconclusive: 14.1 µM [inhibitor, partial curve] |
| O=C(CNC(=O)OCc1ccccc1)Nc1ccc(Br)cc1C(=O)c1ccccc1Cl | inactive: -5.89% |  |
| COc1ccc2[nH]c3c(c2c1)CCNC3C (configuration not stated) |  | inconclusive: 3.98 µM [inhibitor, partial curve, poor fit] |

| Structure (SMILES) | activity, negative = inhibition | Potency |
| --- | --- | --- |
| c1ccc2nc3ccccc3cc2c1 |  | inconclusive: 10 µM [inhibitor, partial curve, poor fit] |
| C[C@@H]1C[C@@H]2O[C@H]2/C=C\C=C\C(=O)Cc2c(Cl)c(O)cc(O)c2C(=O)O1 |  | inconclusive: 28.2 µM [inhibitor, single point] |
| Cc1cccc(OCC(=O)N2CCN(Cc3ccc4c(c3)OCO4)CC2)c1 | inactive: -1.3% |  |
| C[C@H](CCC(=O)O)[C@H]1CC[C@H]2[C@@H]3CC[C@@H]4C[C@H](O)CC[C@]4(C)[C@H]3CC[C@]12C |  | inconclusive: 14.1 µM [inhibitor, partial curve] |
| CCC(C)N1C(=O)/C(=C\c2cnc(N(C)C)nc2)C(=O)NC1=S (configuration not stated) |  | inconclusive: 11.2 µM [inhibitor, partial curve, poor fit] |
| CCN(CC)c1nc2ccccc2nc1C(=O)Nc1cccc(C(C)=O)c1 |  | inconclusive: 20 µM [inhibitor, partial curve] |
| CCCCn1c(C)c(C(=O)OCC)c2c(CN3CCOCC3)c(O)ccc21 |  | inconclusive: 31.6 µM [inhibitor, single point] |
| CNC(=O)Oc1cccc(-c2cn3cc(OC(=O)NC)ccc3n2)c1 |  | active: 14.1 µM |
| COc1ccc(CCn2c(O)c(C=NCc3cccnc3)c(=O)[nH]c2=O)cc1OC | inactive: 2.97% |  |
| Nc1c(C(=O)OCC2CCCO2)c2nc3ccccc3nc2n1Cc1cccs1 (configuration not stated) |  | inconclusive: 39.8 µM [inhibitor, single point] |
| CC(=O)Nc1ccc(N=Cc2c(O)n(Cc3ccco3)c(=O)[nH]c2=O)cc1 |  | inconclusive: 14.1 µM [inhibitor, partial curve] |
| NC1=C([N+](=O)[O-])C(c2ccc3c(c2)OCO3)c2c(c3ccccc3oc2=O)O1 (configuration not stated) |  | inconclusive: 28.2 µM [inhibitor, single point] |
| CCN(CC)c1ccc(N=Cc2c(O)n(Cc3ccco3)c(=O)[nH]c2=O)cc1 |  | inconclusive: 2.24 µM [inhibitor, full curve] |
| CCc1ccc2nc(N3CCC(C(=O)N4CCC5(CC4)OCCO5)CC3)sc2c1 |  | inconclusive: 5.01 µM [inhibitor, partial curve] |
| CCN(CCCl)Cc1ccccc1Br | inactive: -17.3% |  |
| CCN(CC)C(=O)c1ccc(N2C(=O)C3CC=C(Cl)CC3C2=O)cc1 (configuration not stated) | inactive: -1.33% |  |
| CN1CCN(/N=C/c2c(O)n(CCC3=CCCCC3)c(=S)[nH]c2=O)CC1 |  | inconclusive: 7.94 µM [inhibitor, full curve, poor fit] |
| Nc1ccnn1C1CCNCC1 |  | inconclusive: 28.2 µM [inhibitor, partial curve] |
| COc1cc(/C=C/C(=O)c2c(O)n(CCc3ccccc3)c(=O)[nH]c2=O)ccc1O |  | inconclusive: 11.2 µM [inhibitor, partial curve] |
| Cc1cccc(OCCn2cccc2/C=C2/C(=O)NC(=O)N(Cc3ccco3)C2=O)c1 |  | inconclusive: 22.4 µM [inhibitor, partial curve] |
| Cc1noc(C)c1C(=O)N1CCC2(CC1)Oc1ccc(F)cc1C(=O)C21CC(c2ccc(Cl)cc2)=NO1 (configuration not stated) |  | inconclusive: 44.7 µM [inhibitor, single point] |
